PubChem BioAssay AID1346428 (National Center for Advancing Translational Sciences (NCATS), 2018)
Several values for one entry are separate records, joined by “and”; a condition that tells them apart may be missing. Equal values may be shown once. The campaign covered roughly 48,000 compounds. About 1,200 (2.5%) were called active. Roughly 2% stayed inconclusive and do not appear here.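 How the source made its calls: active means activation of at least 60% and not above a set upper limit (about 1 call in 100 departs from these limits); inconclusive means activation of 40% to 60%, or above that upper limit; inactive means activation under 40%.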 Some of the results follow.

biological target: Probable G-protein coupled receptor 32 (Homo sapiens) (UniProt O75388); assay: qHTS for Agonists of Human Resolvin D1 Receptor DRV1; conditions: CHO-K1 GPR32 beta-arrestin PathHunter luminescence, 90 min; at 76.9 µM; stronger effect = higher value; zero percent set by DMSO-only wells; further: 0% is about no effect
Summary of the method: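 CHO-K1 cells stably expressing ProLink-tagged GPR32 and Enzyme Activator-tagged beta-arrestin were seeded at 2,500 cells/well overnight, exposed to compounds for 90 min at 37 °C, then read by beta-Gal complementation chemiluminescence after 1 h detection reagent.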

UniProt O75388, sequence (O75388 whole entry, looked up): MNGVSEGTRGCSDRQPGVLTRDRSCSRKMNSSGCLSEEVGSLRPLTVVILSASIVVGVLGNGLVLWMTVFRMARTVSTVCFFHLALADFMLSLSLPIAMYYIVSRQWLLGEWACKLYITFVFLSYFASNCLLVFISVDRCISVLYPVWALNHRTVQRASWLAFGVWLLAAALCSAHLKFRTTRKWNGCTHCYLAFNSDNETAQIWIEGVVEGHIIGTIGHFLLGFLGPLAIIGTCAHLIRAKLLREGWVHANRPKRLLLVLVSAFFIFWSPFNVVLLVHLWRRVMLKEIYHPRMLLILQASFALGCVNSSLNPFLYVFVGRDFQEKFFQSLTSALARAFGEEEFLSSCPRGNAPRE

activation, inactive:
CCOC(=O)C(CC)Sc1ncnc2sc3c(c12)CCCC3 (centres undefined) 46.8%
O=C(CCn1cccn1)NCc1ccc(Cl)cc1 -3.22%
Cc1nc(-n2nc(C)c(Cc3ccccc3Cl)c2C)sc1C(=O)N1CCC(C)CC1 -3.02%
Cc1oc2ccc(O)c(CN3CCCCCC3)c2c1C(=O)Nc1cccc(Cl)c1C -10.9%
Cc1cccc(-n2ncc(C(=O)N3CCc4ccccc4C3)c2C2CCN(C(=O)OC(C)(C)C)CC2)c1 -17.8%
CCN(CC)CCCNC(=O)c1ccc2c(c1)N(Cc1c(F)cccc1Cl)C(=O)c1ccccc1S2 33%
CCSc1ncc(Cl)c(C(=O)N(Cc2ccccc2Cl)C2CCS(=O)(=O)C2)n1 (centres undefined) -4.28%
O=C(C1CCN(S(=O)(=O)c2cccs2)CC1)N1CCN(c2cccc(Cl)c2)CC1 14.6%
Cc1nn2c(=O)cc(COC(=O)c3cccc(NC(=O)COc4ccc(C)c(C)c4)c3)nc2s1 -13.7%
Cc1c(-c2nsc(NC(=O)c3cccs3)n2)nnn1-c1ccc(Cl)cc1 11.6%
N#Cc1c[nH]n2c(NC3CCCCC3)c(-c3ccccc3F)nc12 -18.2%
O=C(NCCc1ccc(Cl)cc1)C(=O)NCC(c1ccco1)S(=O)(=O)c1cccs1 (centres undefined) -2.22%
COC(=O)c1nnn(CC(=O)Nc2cc(F)ccc2F)c1C(=O)OC -0.449%
CSc1ncc2c(n1)-c1ccccc1N(Cc1ccc(F)cc1)S2(=O)=O -3.58%
Cc1ccc(C)c(NC(=O)CCc2nc(-c3ccc(C(C)(C)C)cc3)no2)c1 18.9%
CC(=O)Nc1ccc(OCCOCCOc2ccc(NC(C)=O)cc2)cc1 -16.7%
COc1cc(CNC(=O)CSCc2nc3cccnc3n2C2CCCCC2)cc(OC)c1OC -21.3%
COc1cccc(NC(=O)CN(C)S(=O)(=O)c2cccs2)c1 -1.54%
CCOc1cc(C#N)c(NC(=O)c2cccc(S(=O)(=O)N3CCOCC3)c2)cc1OCC 7.24%
O=C(CCNS(=O)(=O)c1ccc2c(c1)CCCC(=O)N2)NCc1ccccc1Cl 4.33%
CCC(=O)N1CCc2cc(CNC(=O)Nc3ccccc3Cl)ccc21 -0.588%
CCC1CCCCN1CCCNC(=O)c1ccc2c(c1)N(Cc1ccccc1F)C(=O)c1ccccc1S2(=O)=O (centres undefined) -2.64%
CC1CCN(C(=O)CSc2nc(-c3ccc(C(C)C)cc3)no2)CC1 -9.34%
CC(C(=O)NCc1ccccc1)N1Cc2ccccc2C1=O (centres undefined) -16.3%
O=C(Nc1ccc([N+](=O)[O-])cc1)Nc1ccc([N+](=O)[O-])cc1 -0.583%
COc1ccc(CCNC(=O)c2cc(C)nc3c2c(C)nn3-c2ccccc2)cc1OC -4.96%
CCc1ccc(NC(=O)c2cc(S(=O)(=O)N3CCCC3)ccc2F)cc1 2.44%
Cc1ccc(C(=O)Nc2ccc3c(c2)N(C)C(=O)c2ccccc2S3)cc1 -2.92%
CCCS(=O)(=O)N1CC(=O)N(c2ccccc2F)C(C)(C(=O)NC2CCCCCC2)C1 (centres undefined) -8.58%
CCN1CCSc2ccc(C(=O)NCc3cccc(F)c3)cc21 -14.5%
O=C(Cn1c(=O)n(-c2ccc(Cl)cc2)c(=O)c2c3c(sc21)CCC3)c1ccc(F)cc1 10.4%
CCCCc1nn2c(=O)cc(COC(=O)c3ccc(NC(=O)c4cccs4)cc3)nc2s1 -18.3%
Fc1ccc(Nc2nc3nonc3nc2Nc2cccc(C(F)(F)F)c2)cc1 -10.1%
Cn1c(CNC(=O)CSc2n[nH]c(-c3ccccc3)n2)nc2ccccc21 -6.84%
CC(C)(C)C1CCc2c(sc(NC(=O)Cn3nnc(-c4cccc(C(F)(F)F)c4)n3)c2C#N)C1 (centres undefined) 20.6%
CCCCCOC(=O)CSc1nc2sc3c(c2c(=O)n1Cc1ccccc1)CC(C)(C)OC3 -14.1%
Cc1csc2nc(COc3ccc(NC(=O)COc4ccccc4F)cc3)cc(=O)n12 18.3%
COc1ccccc1N1CCN(C(=O)CSc2nc3ccccc3nc2Cc2ccc(F)cc2)CC1 -4.31%
COc1ccccc1Cn1c(CNS(=O)(=O)c2ccc3c(c2)CCCC3)nc2cccnc21 -16.5%
Cc1cccc(Nc2nc(-c3ccccc3)c3cc(C)ccc3n2)c1 -33.4%
O=C(CSc1nc(-c2ccccc2)[nH]c1-c1ccccc1)Nc1ccc2c(c1)OCO2 -6.83%
Cc1nc2sccn2c(=O)c1S(=O)(=O)Nc1ccc(N2CCN(S(C)(=O)=O)CC2)cc1 29.9%
CCC(=O)N1c2ccccc2CC1C(=O)NCCN1CCN(c2cccc(C)c2C)CC1 (centres undefined) 2.09%
Cc1ccc(-c2nc3ccccc3o2)cc1NC(=O)c1cccc2c(Cl)cccc12 -4.22%
NCCCC(N)(C(=O)O)C(F)F (centres undefined) -53.6% and -0.916%
CC(C)OCCCn1c(SCC(=O)Nc2ccc(F)cc2)nc2c(sc3ccccc32)c1=O -3.69%
Cc1ccc(NC(=O)CSc2nnc3[nH]c(=O)cc(C)n23)cc1Cl 14.5%
Cc1sc2c(c1C)c(=O)n(-c1ccccc1)c(=O)n2CC(=O)c1ccc(Cl)cc1 -6.67%
COc1cccc(CNC(=O)CCc2nnc3n(CC(C)C)c(=O)c4ccccc4n23)c1 2.9%
CC(C)CC(=O)N1CC(=O)Nc2ccc(F)cc2C1c1ccccc1 (centres undefined) -7.71%
CCC(Sc1nc2c(sc3ccccc32)c(=O)n1CCCC(=O)NC1CCCC1)C(=O)Nc1cccc(OC)c1 (centres undefined) -15.2%
O=[N+]([O-])c1cc(-c2nc(-c3ccccc3)no2)ccc1N1CCCC1 2.81%
Cc1ccccc1NCc1cccn1-c1nnc(N2CCOCC2)s1 15.5%
Cc1ccc(C2=NN(CCC(=O)NCCc3cccc(C)c3)C(=O)CC2)cc1 -24.3%
